Experimental data reported in paper PMC12537989.
No constants are given. Whether binding was seen depends on the method and setting. In cells and extracts the contact can be indirect. Some entries that bind do so weakly or less than the wild type.

Sequences of proteins named here, by UniProt entry; tags and fusion partners are left off.
UniProt P63024: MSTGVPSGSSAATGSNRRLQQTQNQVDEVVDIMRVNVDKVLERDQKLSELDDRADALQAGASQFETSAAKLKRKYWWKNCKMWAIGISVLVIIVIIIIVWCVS

Columns and labels:
Assay in all cases: co-IP; HEK293T cells co-transfected with SLC9A9 and the partner plasmid, collected 36 h after transfection; lysed in 50 mM Tris-HCl pH 7.4, 1 mM EDTA, 150 mM NaCl, 1% Triton; protein A/G Plus-Agarose and 3 ug antibody, 12 h at 4 C, 5 washes; immunoblot; some samples with amiloride treatment (interaction inhibited)
Vamp8 (mouse) = target: T1, Vamp8 (mouse) (UniProt O70404)
T1 sequence: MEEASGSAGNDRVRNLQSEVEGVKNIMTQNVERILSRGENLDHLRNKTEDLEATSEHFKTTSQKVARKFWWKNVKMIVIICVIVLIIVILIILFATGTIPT

Vamp3 (mouse) = Vamp3 (mouse) (UniProt P63024)
Rab5b (mouse) = target: T2, Rab5b (mouse) (UniProt P61021)
T2 sequence: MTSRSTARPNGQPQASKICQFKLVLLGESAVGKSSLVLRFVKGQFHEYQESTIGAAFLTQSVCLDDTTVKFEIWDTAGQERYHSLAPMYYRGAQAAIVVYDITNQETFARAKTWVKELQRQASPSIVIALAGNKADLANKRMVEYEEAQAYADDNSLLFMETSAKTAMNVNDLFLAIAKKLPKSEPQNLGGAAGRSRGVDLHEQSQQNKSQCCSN

Vps11 (mouse) = target: T3, Vps11 (mouse) (UniProt Q91W86)
T3 sequence: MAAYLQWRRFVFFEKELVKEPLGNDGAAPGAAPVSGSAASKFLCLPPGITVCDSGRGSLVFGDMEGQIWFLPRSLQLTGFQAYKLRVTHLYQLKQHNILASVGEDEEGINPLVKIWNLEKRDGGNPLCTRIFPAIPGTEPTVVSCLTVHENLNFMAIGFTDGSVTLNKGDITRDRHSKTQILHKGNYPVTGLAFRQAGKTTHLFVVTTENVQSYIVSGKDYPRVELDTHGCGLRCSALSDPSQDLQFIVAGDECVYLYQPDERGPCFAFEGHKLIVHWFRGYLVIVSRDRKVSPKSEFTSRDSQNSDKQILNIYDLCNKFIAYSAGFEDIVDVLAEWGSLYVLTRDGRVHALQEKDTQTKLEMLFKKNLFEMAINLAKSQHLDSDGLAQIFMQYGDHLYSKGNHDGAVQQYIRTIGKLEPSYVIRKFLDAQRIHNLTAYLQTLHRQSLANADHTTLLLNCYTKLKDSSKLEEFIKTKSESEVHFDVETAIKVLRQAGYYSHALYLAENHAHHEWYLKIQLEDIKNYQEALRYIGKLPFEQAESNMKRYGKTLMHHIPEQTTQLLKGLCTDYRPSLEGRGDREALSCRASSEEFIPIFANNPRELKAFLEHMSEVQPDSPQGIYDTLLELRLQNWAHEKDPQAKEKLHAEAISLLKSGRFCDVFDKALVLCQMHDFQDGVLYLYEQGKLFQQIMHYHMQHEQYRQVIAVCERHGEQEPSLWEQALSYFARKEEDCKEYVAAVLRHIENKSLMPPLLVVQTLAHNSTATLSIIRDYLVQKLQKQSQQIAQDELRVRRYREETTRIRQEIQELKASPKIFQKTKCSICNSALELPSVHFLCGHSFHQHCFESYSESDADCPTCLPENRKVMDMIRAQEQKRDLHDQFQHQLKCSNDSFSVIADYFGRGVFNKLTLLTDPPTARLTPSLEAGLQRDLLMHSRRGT

Vps18 (mouse) = target: T4, Vps18 (mouse) (UniProt Q8R307)
T4 sequence: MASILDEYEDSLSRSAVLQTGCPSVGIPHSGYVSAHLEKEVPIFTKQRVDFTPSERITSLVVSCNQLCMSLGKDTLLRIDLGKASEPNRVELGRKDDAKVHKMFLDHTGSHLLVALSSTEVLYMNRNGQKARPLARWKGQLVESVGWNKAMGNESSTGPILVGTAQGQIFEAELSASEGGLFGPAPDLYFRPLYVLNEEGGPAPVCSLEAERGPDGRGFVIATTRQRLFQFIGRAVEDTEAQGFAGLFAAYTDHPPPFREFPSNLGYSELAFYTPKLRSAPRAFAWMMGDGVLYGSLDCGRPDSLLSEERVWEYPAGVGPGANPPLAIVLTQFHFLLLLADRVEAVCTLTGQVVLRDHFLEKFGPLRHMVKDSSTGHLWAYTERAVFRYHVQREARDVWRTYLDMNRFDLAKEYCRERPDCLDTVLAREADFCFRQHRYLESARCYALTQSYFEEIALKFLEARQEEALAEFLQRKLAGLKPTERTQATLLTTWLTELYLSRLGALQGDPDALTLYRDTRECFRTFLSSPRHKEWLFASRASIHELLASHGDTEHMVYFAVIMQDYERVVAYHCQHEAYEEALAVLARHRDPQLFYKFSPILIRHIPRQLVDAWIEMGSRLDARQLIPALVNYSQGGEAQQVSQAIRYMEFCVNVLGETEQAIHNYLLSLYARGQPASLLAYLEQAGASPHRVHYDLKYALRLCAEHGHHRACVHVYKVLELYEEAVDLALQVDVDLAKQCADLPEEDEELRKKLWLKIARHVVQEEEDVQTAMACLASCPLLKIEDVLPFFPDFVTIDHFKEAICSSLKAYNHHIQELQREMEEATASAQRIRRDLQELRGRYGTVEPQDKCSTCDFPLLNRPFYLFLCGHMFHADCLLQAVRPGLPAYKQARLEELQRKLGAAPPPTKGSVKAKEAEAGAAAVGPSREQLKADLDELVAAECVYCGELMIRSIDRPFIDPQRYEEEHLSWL

B1: Endosomal solute carrier family 9 member A9 (SLC9A9) (protein, UniProt Q8BZ00 1-644)
chain: MAGQLRFTSGKDEDHFQHQGAVELLAFNFLLILTILTIWLFKNHRFRFLHETGGAMVYGLIMGLILRYATAPTDIDSGTVYNCGNLFFSPSTLLVNITDQVYEYKYQREINQHNISPHQGNAILEKMTFDPEIFFNVLLPPIIFHAGYSLKKRHFFQNLGSILTYAFLGTAISCVVIGLIMYGFVKAMVHAGQLKSGDFHFTDCLFFGSLMSATDPVTVLAIFHELHVDPDLYTLLFGESVLNDAVAIVLTYSISIYSPKENPNAFDTAAFFQSVGNFLGIFAGSFAMGSAYAVVTALLTKFTKLREFPMLETGLFFLLSWSAFLSAEAAGLTGIVAVLFCGVTQAHYTYNNLSSDSKLRTKQLFEFMNFLAENVIFCYMGLALFTFQNHIFNALFILGAFLAIFVARACNIYPLSFLLNLGRKQKIPWNFQHMMMFSGLRGAIAFALAIRNTESQPKQMMFTTTLLLVFFTVWVFGGGTTPMLTWLQIRVGVDLDESLKEEPSSQQEANKLDKNMTKTESAQLFRMWYGFDHKYLKPILTHSGPPLTTTLPAWCGPVSRLLTSPQAYGEQLKEDDVECIVNQDELAMNYQEQSPSPSSPTTKLALDQKSSGQTPGKENIYEGDLGLGGYDLKLEQTRGQPQMD
binding (Vamp8 (mouse)): no binding | binding (Vamp3 (mouse)): no binding | binding (Rab5b (mouse)): no binding | binding (Vps11 (mouse)): binds | binding (Vps18 (mouse)): binds
